# Measured values published in PubChem BioAssay AID361 (National Center for Advancing Translational Sciences (NCATS), 2006).
# Among all 51,000 compounds or so, about 600 (1.2%) were called active. The shares of active, inactive and inconclusive entries below differ from those in the screen. Rule as the data show it: active = potency below about 11 µM; inconclusive = mostly about 12 µM to 25 µM; inactive = weaker than that;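 the screen sought inhibitors and activators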. No potency is given beside an inconclusive call; the fits are too rough.
# System: pyruvate kinase (Bacillus stearothermophilus)
# Assay: Pyruvate Kinase
# Conditions: purified pyruvate kinase, luminescence ATP production; ribose 5-phosphate activator present at AC10
# Summary of the method: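 Compounds were mixed with substrate buffer (pH 7.2, 2 mM PEP, 0.1 mM ADP, 0.7 nM ribose 5-phosphate) and then with 10 nM enzyme. After 2 h at room temperature, a luciferase stop/detection reagent was added and luminescence measured.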
# Potency is read from the fitted curve at half-maximal effect.
row,Structure (SMILES),Potency
1,CC(=O)N(c1cccc(C)c1)C1SC(=O)N(c2ccccc2)C1=O (centres undefined),inactive: > 57 µM
2,N#CCCCCN1c2cccc3cccc(c23)S1(=O)=O,active: 7.94 µM
3,O=C(COC(=O)C1CCCCC1C(=O)N1CCc2ccccc21)NCc1ccco1 (centres undefined),inactive: > 57 µM
4,O=C(c1ccc2ccccc2n1)N1CCN(c2ccccc2)CC1,inconclusive [increasing]
5,COC(=O)c1c(-c2cccnc2)csc1NC(=O)c1cc(C)on1,inconclusive [decreasing]
6,O=C(O)CCc1nc(-c2ccccc2Cl)no1,inactive: > 57 µM
7,CC(=O)c1cc2c(cc1NC(=O)CSc1nc3ccccc3o1)OCO2,inactive: > 57 µM
8,O=c1c(O)c(-c2ccc3c(c2)OCO3)oc2ccccc12,inactive: > 57 µM
9,CCCCCn1c(=NC(=O)c2ccco2)c(C(=O)OCC)cc2c(=O)n3ccccc3nc21,inactive: > 57 µM
10,COc1ccccc1-c1nnc(SCC(=O)Nc2c(Cl)cccc2Cl)o1,inconclusive [increasing]
11,CC(=Nc1cccc(O)c1)c1sc2ccccc2c1O,active: 8.21 µM
12,Cc1ccc2c(c1)[nH]c1c(N3CCN(Cc4ccccc4)CC3)ncnc12,inconclusive [decreasing]
13,COCCn1c(C)cc(C(=O)COC(=O)C23CC4CC(CC(O)(C4)C2)C3)c1C,inactive
14,Cc1coc(C)c1C(=O)CC1(O)C(=O)N(CCc2ccccc2)c2ccccc21 (centres undefined),inconclusive [increasing]
15,CCC(=O)Nc1ccc2oc(-c3cccc(C)c3)nc2c1,active: 2.08 µM
16,COc1cc(NS(=O)(=O)c2ccc(C)cc2)ccc1-n1cnnn1,inactive: > 57 µM
17,O=C(COC(=O)CN1C(=O)c2ccccc2C1=O)Nc1ncc(Cl)cc1Cl,inconclusive [increasing]
18,CN1CCN(CCCNc2nc3ccccc3c3nc(-c4ccccc4)nn23)CC1,active: 10 µM
19,CC(C)C(NC(=O)C1CCCCC1)C(=O)Nc1ccc2c(c1)OCCO2 (centres undefined),inconclusive [decreasing]
20,N#CC1=C(N)Oc2c(ccc3cccnc23)C1c1cccnc1 (centres undefined),inconclusive [increasing]
21,Cc1ccc(C(=O)Nc2ccc3c(c2)nc2n3CCSC2)cc1,inconclusive [decreasing]

row,Structure (SMILES),Potency
1,CN(C)c1ccc(CN(C(=O)C2COc3ccccc3O2)C2CCS(=O)(=O)C2)cc1 (centres undefined),inconclusive [increasing]
2,O=C(Oc1ccc(Cl)c2cccnc12)N1CCOCC1,inconclusive [increasing]
3,Cc1occc1C(=O)N1CCN(C(c2ccccc2)c2ccccc2)CC1,inactive: > 57 µM
4,Cc1nn2cc(-c3ccc(Cl)cc3)nc2s1,inconclusive [decreasing]
5,O=C(Cc1ccccc1)N1CCC(c2nc3ccccc3[nH]2)CC1,inactive: > 57 µM
6,CCOC(=O)N1CCN(S(=O)(=O)c2cccc3cccnc23)CC1,inconclusive [increasing]
7,COc1ccc(C(=O)Nc2nc(-c3cccs3)cs2)cc1,inconclusive [decreasing]
8,COc1ccc2[nH]c3c(c2c1)CCn1c-3nc2ccccc2c1=O,active: 0.196 µM
9,CCN(CC)CC(=O)c1ccc(-c2ccccc2)cc1,inactive: > 57 µM
10,Cc1nnc(NC(=O)c2sc3ccccc3c2Cl)s1,active: 2.09 µM
11,O=C(NCc1ccco1)c1cccn2c(=O)c3cc(Br)ccc3nc12,inconclusive [decreasing]
12,COc1ccccc1N1C(=O)CC(Nc2ccc(N3CCOCC3)cc2)C1=O (centres undefined),inactive: > 57 µM
13,Cc1ccc(S(=O)(=O)NCc2ccc(C(=O)NCCCN3CCN(C)CC3)cc2)cc1,inconclusive [increasing]
14,CC1CN(c2nc3ccccn3c(=O)c2/C=C(\C#N)S(=O)(=O)c2ccccc2)CC(C)O1 (centres undefined),inactive: > 57 µM
15,CCOc1ccc2nc(NC(=O)CSc3nnc(-c4ccncc4)n3CC3CCCO3)sc2c1 (centres undefined),active: 4.67 µM
16,O=c1c2c(-c3ccccc3)csc2nc2n1CCC2,inconclusive [decreasing]
17,O=C(Nc1ccc(F)cc1)N(Cc1ccco1)Cc1cc2cc3c(cc2[nH]c1=O)OCO3,active: 3.81 µM
18,O=c1c2ccccc2nc(-c2ccccc2)n1CCCN1CCOCC1,inactive: > 57 µM
19,CCc1ccc2oc(-c3cc(N=Cc4cccc(OC)c4O)ccc3O)nc2c1,active: 1.35 µM
20,COc1ccccc1N1CCN(C(=O)c2cnn3cccnc23)CC1,inconclusive [increasing]
21,O=C(Nc1nc2ccccc2s1)C1CCCN1S(=O)(=O)c1ccc(Cl)cc1 (centres undefined),inconclusive [increasing]

row,Structure (SMILES),Potency
1,COc1ccc(NC(=O)C(C)Oc2ccc(/C(C)=N\O)cc2)cc1 (centres undefined),inactive: > 57 µM
2,CCCC(c1nnnn1CCOC)N1CCN(c2cccc(OC)c2)CC1 (centres undefined),inactive: > 57 µM
3,CCCCC(=O)Nc1ccc(F)c(Cl)c1,inactive: > 57 µM
4,Cc1ccc(S(=O)(=O)N2CCCC(C(=O)NC3=NCCS3)C2)cc1 (centres undefined),active: 6.31 µM
5,O=S(=O)(c1ccc(NC2CCCc3ccccc32)nc1)N1CCOCC1 (centres undefined),inconclusive [increasing]
6,O/N=C1\CCc2cc(Cl)ccc21,inconclusive [decreasing]
7,CCC1CCCCN1C(=O)CSc1nc2c([nH]c3ccccc32)c(=O)n1C (centres undefined),inactive: > 57 µM
8,O=C(Nc1ccc2c(c1)nc1n2CCSC1)c1ccccc1,inconclusive [decreasing]
9,Cc1cc(C(=O)Nc2cnn(Cc3ccc(Cl)cc3Cl)c2)no1,active: 9.19 µM
10,N#CC1=C2SCN(Cc3ccco3)CN2C(=O)CC1c1ccc(Cl)cc1 (centres undefined),inconclusive [increasing]
11,CCn1nnc(NC(=O)C(C)Oc2ccc(Cl)cc2Cl)n1 (centres undefined),inconclusive [increasing]
12,O=C(CC(SCCO)c1ccc(F)cc1)c1ccco1 (centres undefined),inactive: > 57 µM
13,CC(=O)Nc1ccc(NS(=O)(=O)c2cc(C)sc2C)cc1,inconclusive [increasing]
14,COc1cccc(-c2cc(C(=O)Nc3cccc(O)c3)no2)c1,active: 5.63 µM
15,c1ccc(-n2ncc3c(N4CCCC4)ncnc32)cc1,inconclusive [decreasing]
16,CN(c1ccc(O)cc1)c1nc(-c2ccccc2)cs1,inconclusive [decreasing]
17,CC12CC(NC(=O)N1c1cccc(C(=O)NCc3ccc4c(c3)OCO4)c1)c1cc(Cl)ccc1O2 (centres undefined),inconclusive [increasing]
18,Cc1nn(-c2ccccc2)c(N2CCCC2)c1/C=N/n1cnc2scc(-c3ccccc3)c2c1=O,inactive: > 57 µM
19,Clc1ccc(-n2ncc3c(NCCCn4ccnc4)ncnc32)cc1,inconclusive [decreasing]
20,CCNc1nc(-c2ccc(Cl)cc2)cs1,active: 10.1 µM
21,COc1cc(=O)[nH]c(SCc2c(F)c(F)c(F)c(F)c2F)n1,inconclusive [increasing]

row,Structure (SMILES),Potency
1,O=C(NCc1ccc2c(c1)OCO2)C(c1ccco1)N(C(=O)c1csnn1)c1ccccc1 (centres undefined),inactive: > 57 µM
2,COC(=O)c1ccccc1NC(=O)CN(Cc1ccccc1)S(C)(=O)=O,inconclusive [increasing]
3,Cc1cccc2nc(=S)n(C(=O)c3ccco3)n12,inconclusive [decreasing]
4,CCc1ccc2c(c1)c1nc(C)sc1n2CC,inconclusive [increasing]
5,CCOC(=O)CC(=O)CSc1nc2ccc(C)cc2cc1C#N,inconclusive [decreasing]
6,CCOc1ccc(NS(=O)(=O)c2ccc(OCC(=O)N3CCCC3)cc2)cc1,inactive: > 57 µM
7,O=C(O)CSc1nc(-c2ccccc2)nc2c1oc1ccccc12,inconclusive [decreasing]
8,COC(=O)CNc1c(-c2ccccn2)nc2ccc(Br)cn12,inconclusive [decreasing]
9,COc1cccc(-c2nnc3sc(-c4cccs4)nn23)c1,inconclusive [decreasing]
10,Cn1c(SCC(=O)NCc2ccccc2)nc2ccccc21,inconclusive [increasing]
11,CSc1oc(-c2ccccc2)nc1C(N)=O,inconclusive [decreasing]
12,CCN(CC)S(=O)(=O)c1cc(C)c(C)cc1Br,inconclusive [increasing]
13,O=S1(=O)c2cccc3cccc(c23)N1Cc1nnc(-c2ccccc2Br)o1,active: 2.07 µM
14,O=S(=O)(c1ccc2ccccc2c1)N(CC(O)CN1CCOCC1)c1ccccc1 (centres undefined),inconclusive [increasing]
15,CCCC(=O)Nc1ccc(NC(=O)c2ccccc2OC)cn1,inactive: > 57 µM
16,CCc1nc2scc(-c3ccccc3)c2c(=O)n1N,inconclusive [decreasing]
17,COC(=O)CSc1nnnn1-c1cccc2ccccc12,inconclusive [increasing]
18,CCCN1c2cccc3cccc(c23)S1(=O)=O,inconclusive [increasing]
19,Cc1cc2cc(CN3C(=O)c4ccccc4C3=O)ccc2[nH]1,inactive: > 57 µM
20,Cc1cc(-c2cccnc2)c(C#N)c(SCC#N)n1,inactive: > 57 µM
21,O=C(OCCCCN1C(=O)c2ccccc2C1=O)c1ccc(S(=O)(=O)N2CCCC2)cc1,inactive: > 57 µM
